This passage reports binding signal results from article PMC7819943, “Rice protein-binding microarrays: a tool to detect cis-acting elements near promoter regions in rice”.

The list shows a part of the results.

This test has as its target T1, OsWOX13 (Oryza sativa, UniProt Q5QMM3 1-267).
T1 sequence: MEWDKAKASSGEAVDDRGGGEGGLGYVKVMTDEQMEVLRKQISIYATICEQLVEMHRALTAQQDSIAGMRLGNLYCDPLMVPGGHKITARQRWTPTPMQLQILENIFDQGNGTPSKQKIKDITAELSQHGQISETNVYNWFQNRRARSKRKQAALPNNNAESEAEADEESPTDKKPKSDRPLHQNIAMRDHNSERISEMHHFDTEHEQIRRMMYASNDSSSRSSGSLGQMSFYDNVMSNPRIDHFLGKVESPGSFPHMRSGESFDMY
In words: protein-binding microarray (RPBM); PBS, 2% BSA, 51.3 ng/ul salmon testes DNA, 50 uM zinc acetate, 200 nM TF, 25 C, 1 h; high values mean tight binding. As to conditions: protein: recombinant; tags: N-terminal polyhistidine and DsRed monomer fusion (pET32a); label: CyDye5-dUTP incorporated in the synthesized complementary strand; 3' TTTTT single-stranded linker to array surface; dsDNA, one strand shown. The method in brief: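 Transcription factors were made in E. coli BL21-CodonPlus as N-terminal fusions to a polyhistidine tag and DsRed, then purified on Ni–NTA. After primer extension with Cy5-dUTP and blocking with 2% BSA, a custom Agilent array was exposed for 1 h at 25 °C to 200 nM protein in PBS, 2% BSA, salmon testes DNA and 50 µM zinc acetate. Washed arrays were scanned on an Axon 4000B, and the binding signal is per-feature fluorescence intensity in arbitrary units.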
Regarding “TAACTAAAATTATCAAATCATCGGATCGGGGTTTGGCGTTCGGAGTCACCTAGTGCAG”, the binding signal is 12500 fluorescence intensity (a.u.). For “TTTTCCATCACATTAACCTGTCATACACACAAAACTTTTCCGGAGTCACCTAGTGCAG” the value was 4820 fluorescence intensity (a.u.); for “GTTAAATTTGGAGCAGATTGACTTTGACCAAAACTAAAACCGGAGTCACCTAGTGCAG”, 36400 fluorescence intensity (a.u.). In the case of “GCATTCACTGGTTTAGATTGGAATTGGATGGCATCCGGAGCGGAGTCACCTAGTGCAG” it was 22800 fluorescence intensity (a.u.); in that of “TTACAGATTGGCCCCTGTATTTCTCTCTCTCGTCTCTCCTCGGAGTCACCTAGTGCAG”, 24800 fluorescence intensity (a.u.). As for “TCCCAACATGATGTACTTTGATTGGGCTCAATTCTAGATGCGGAGTCACCTAGTGCAG”, the binding signal was 16700 fluorescence intensity (a.u.). For “CCAAGCAACAATAATGAAATGGGATTGAAACCACCCATAACGGAGTCACCTAGTGCAG” the value was 3450 fluorescence intensity (a.u.); for “CTGGGAGGCAATTAATTTGAGTTGAGATCGACTTGAGAGCCGGAGTCACCTAGTGCAG”, 6130 fluorescence intensity (a.u.); for “ATTAATTAACCACACTCACTCAATCCTGGAACTCGATTATCGGAGTCACCTAGTGCAG”, 12600 fluorescence intensity (a.u.).

Consider “ATTTAAATTTTCAACCTTAAATTTAGAGTTGACTTTGGTTCGGAGTCACCTAGTGCAG”, for which the binding signal was 13800 fluorescence intensity (a.u.).

In the case of “AACTAATTTAACCCGGTTTTGTAAGTTAGGCGTCACGATTCGGAGTCACCTAGTGCAG”, the binding signal is 17600 fluorescence intensity (a.u.). In the case of “ATCAGGGATGAATTGAATGACAAGAGTAACATACAGGTAGCGGAGTCACCTAGTGCAG” it was 3580 fluorescence intensity (a.u.); in that of “GATTTGAAATTTTCAACTTAGATTTGAAAACTTTCAAGTCCGGAGTCACCTAGTGCAG”, 3390 fluorescence intensity (a.u.); in that of “GTACTGATTAAAGTGATCAGTTCATCAGTCCACGGCAAACCGGAGTCACCTAGTGCAG”, 14300 fluorescence intensity (a.u.).

In the case of “ATGATTTATAAGAATATAATTCGGACTTGACGTCAAGATGCGGAGTCACCTAGTGCAG”, the binding signal is 10500 fluorescence intensity (a.u.). In the case of “AAATTGACATAAATTTGAACAACCCCTTATATCTTTACTTCGGAGTCACCTAGTGCAG”, the binding signal is 18700 fluorescence intensity (a.u.). In the case of “TAACTAATCAATTACTGGCAGAGACGATCAACGAGCGTATCGGAGTCACCTAGTGCAG” it was 40300 fluorescence intensity (a.u.); in that of “AATTAACAGGTGGATCCTCTACAGAATAGGATTATGTTGTCGGAGTCACCTAGTGCAG”, 5420 fluorescence intensity (a.u.); in that of “TGAATAGATAGATCTTCATGAAACGTCAGTATATGTCACCCGGAGTCACCTAGTGCAG”, 6300 fluorescence intensity (a.u.). In the case of “GGGTTCTAATTAAACATTTAATTTGCCTCTCCATGTAAGTCGGAGTCACCTAGTGCAG” it was 26100 fluorescence intensity (a.u.); in that of “CTTATCACTGACAATCCAATCCGATTTCACCTGGTTGCTTCGGAGTCACCTAGTGCAG”, 3180 fluorescence intensity (a.u.). For “ATTGAGATTTGATTTTCCATCTTCAAAGTCTTTCAAAACTCGGAGTCACCTAGTGCAG” the value was 6780 fluorescence intensity (a.u.); for “AAACGATTGAAACATTTTCGATATACTTAGTGAAACAATTCGGAGTCACCTAGTGCAG”, 4140 fluorescence intensity (a.u.). For the sequence “ATGTAAAATTGGCCGATTAAATATGAAATTACTATACTACCGGAGTCACCTAGTGCAG”, the binding signal is 7500 fluorescence intensity (a.u.).

Take “GCGTTTTCGGCGGGGAACGCGGGGAGGCGGGTGGGGTTGACGGAGTCACCTAGTGCAG”: the binding signal was 5610 fluorescence intensity (a.u.). For “GAGAGTGGTTAACAAAGTCAATCAGGAGATCCGTAAGACACGGAGTCACCTAGTGCAG” the value was 6890 fluorescence intensity (a.u.). Turning to “ATTTGCTGATTGCCGAACTGCTACTGAACTGCTGACTACTCGGAGTCACCTAGTGCAG”, the binding signal was 20800 fluorescence intensity (a.u.).

Consider “ATTTGCCGTTTAATTTTATTTTAAATCAAACATTTTAATCCGGAGTCACCTAGTGCAG”, for which the binding signal is 12600 fluorescence intensity (a.u.). For “TTTATAATTTATGTCTTGAAGCTAGAGCCGTGCCAAACAACGGAGTCACCTAGTGCAG” the value was 3690 fluorescence intensity (a.u.). With “TCTCTAATTAGGACTCTTTTGACGTGCCTCATCACAGCAGCGGAGTCACCTAGTGCAG”, the binding signal was 39700 fluorescence intensity (a.u.). In the case of “CACATTCAGTTCTAGATTAATTTATTTTGGATGAATGTATCGGAGTCACCTAGTGCAG” it was 6060 fluorescence intensity (a.u.); in that of “TCAAAATGTATGATGTCATTGACTTTTCACGTAACGTTTGCGGAGTCACCTAGTGCAG”, 3290 fluorescence intensity (a.u.); in that of “TATATTAATACTTAATTGATTATATATTGTTTTACGTGCGCGGAGTCACCTAGTGCAG”, 38600 fluorescence intensity (a.u.). For “ATAATTGAAAATTGATTAGAGTACCTTTTGATGAGATAGCCGGAGTCACCTAGTGCAG” the value was 57300 fluorescence intensity (a.u.).

For “CAGATCACTAAACCAATCATCAGCTAACATCGCGGGAGCACGGAGTCACCTAGTGCAG”, the binding signal is 4090 fluorescence intensity (a.u.). “TTAATTTGTTGTGATTAACGTGGCATGCATGACACTAAAGCGGAGTCACCTAGTGCAG”: the binding signal is 26900 fluorescence intensity (a.u.). For “TACCTAAAAGAACCGCCAATCAACCGCCTTACTCATGTTACGGAGTCACCTAGTGCAG” the value was 3360 fluorescence intensity (a.u.); for “GAAATTACATATGACAAATCCAGAATTTTGATGGAGTGGTCGGAGTCACCTAGTGCAG”, 6770 fluorescence intensity (a.u.). In the case of “TCACTGACACCAATTAAGGATCGAGTCGACAAGGGAGAAACGGAGTCACCTAGTGCAG” it was 5910 fluorescence intensity (a.u.). For “ATAAACGAGCAAATTGATGTGAGATCCACTAGAGAGGAGACGGAGTCACCTAGTGCAG” the value was 15400 fluorescence intensity (a.u.). Regarding “CACTTAATTGTATACCAATTGAGATTTCCCGCAGTACCACCGGAGTCACCTAGTGCAG”, the binding signal was 42200 fluorescence intensity (a.u.). For “CCTCAAAATTTCGAAAATTGCGCCCGTCTTCCTTCCCTTCCGGAGTCACCTAGTGCAG” the value was 3530 fluorescence intensity (a.u.).
